Data taken from the RNAGym collection of RNA variant scans (doi:10.7554/elife.90254).
Read counts are not given, so values of variants with three or more changes are uncertain.

B1: LINE1-mini (parent)
chain: GGCAGAGCUCAACACAGCGUGGCAAAGUGGCUGUGGCUAGACUGCC

Variants of: B1
Test: self-cleavage, relative activity (ratio to wild type); higher = more cleavage; in vitro, sequencing; the parent is a self-cleaving ribozyme

| Variant | self-cleavage |
| --- | --- |
| GGCCGAGCUCAACACAGAGAGUCAAAGUGGCUGUGGCUAGUCUGCC | 0.04 |
| GGCAGAGCCCAAUACAGCGUGGCAAAGUGGCUGUGGCUCGACUGCC | 0.01 |
| GGCAGCGCUCAACACAGCCGGGCAAGGUGGCUGUGGCUCGUCUGCC | 0.04 |
| GGCAGACCUCAUCACAGCGUGGCUAAGUGGCUGUGGCUAGACUGCC | 0.1 |
| CGCAGAGCUCAACACAGCGUGGCAAAGUGGCGCUGGCCAGACUGCC | 0 |
| GGCAGAGCUCAACACAGAGUGGGAAAGUGGCUGUGGCUAGACUACC | 0.13 |
| GGUAGAGCUCAACACAGCGUGGCACAGUAGCUGUGGCUAGAGUCCC | 0.02 |
| GGCAGAACUCAACUCGGCGUGGCAAAGUGGCUGUGGCUAGGCUGCC | 0.13 |
| GGCAGAGCUCAAGACAGCGUGCCAAAGUGGCUGUGUCUACACUGCC | 0.05 |
| GGCAGAGCUUAACACGCCGUGGCAUAGUGGCUGUGGCGAGACUGCC | 0.02 |
| GUCUGAGCUCAACACAGCGUGGCAAAGUUGGCGUGGCUAGACUGAC | 0.01 |
| GGCAGAGCUCAACACAGCGUGGCAAACUGGAUGUGGCUAUACUGCC | 0.03 |
| GGCAGAGCUCCACACAGCGUGGCAAAGUGGCUGCGAAUAGACUGCC | 0.07 |
| GGUAGGGCUAAACACAGCGUGGCGAAGUGGCUGUGGCUAGUCUGCC | 0.01 |
| GGUAAAGCUCAACACAGCGUGGCAAAGUGGCUGUGGCUUGAGUGCC | 0.02 |
| GGCAGAGCUCAACACGGAGUGGCAUAGUGACUGUGGCUUGACUGCC | 0.08 |
| GGCAGAGCCCUACACAGCGUGGCACAGUGGCUGUGGCUAGACUGAC | 0.04 |
| GGCGGAGCUCAACACAGCGUGGCAUAGUGGCUGUGGCUAGACUGUC | 0.25 |
| GUCAGAGCUCAACGAAGCGUGGCAAAGUGGUUGAGGAUAGACUGCC | 0.04 |

| Variant | self-cleavage |
| --- | --- |
| GGCUGAGCACAACACAGUGAGGCAAAGUGGCUGUGGCUAGACUGCC | 0.1 |
| GGCAGAGCUCAACACAGAGUGGCAAAGUGGCUGUGGCUAGACCGCU | 0.04 |
| GGCAGAGCUCAACACGGAGUGGCAAAGUGGCUGAGGCUAGACUGCC | 0.02 |
| GGCAGAGUUCAACACAACGUGGCAAAGUGGCUUUGGCCAGACUGCC | 0.03 |
| GGCAAAGCUCAACACAGCGUGGCAAAGUGGCUGUGGGUAGACUGCG | 0.03 |
| GACAGAGCUCAAUACAGCGUUGCAAAGUGGCUGUGGCUAGACUGCC | 1.46 |
| UGCAUAGCUCAACACAGCGUGGCAAAGUGGCUGUGGCUUGACUGCC | 0.04 |
| GGCAGAGCUCAACACAGUGUGGCAAAGUGGCUGAGGCUAGACUUCG | 0.01 |
| GGCAGAACUCAACACACCGUGGCAGAGUGGCUGUGGCUAGACUGCC | 0.01 |
| GGCAGAGCUCAUAACAACGUGGCAAAGUGGCUGUGGCUAGAGUGCC | 0.05 |
| GGCAGAGCUAAACACAGCGUGGCAAAGUGGCAAUGGCUAGACUGCC | 0.02 |
| GGUAGAGCUCUACACAGCGUGGCAAAGUGGCGGUGGCUAGACUGCU | 0.03 |
| GCCAGAGCUAAACACAGCGUGGCAAAGUGGCUGUUGCUAGUCUGCC | 0.01 |
| AGCAGAGCUCAACACUGCAUCGCAAAGUGGCGGUGGCUAGACUGCC | 0.09 |
| GGCAGAACUCAACACAGCGUGGCAAAGGGGCUGUGGUUAGACUGCC | 0.04 |
| GGGAGCCAUCAACACAGCGUGGCAAAGUGGCUUUAGCUAGACUGCC | 0.09 |
| GGCAGAGCUCAACACCGCGUUGCAGAGAGGCUGUGGCUAGAGUGCC | 0.03 |
| GGAAGAGUUCAACACAGCGUAGCAAAGUGGCUGUGGCUAGACUGCC | 0.26 |
| UGCAGAGCUCACCACAGCGUGUCAAAGUCGCUGUGGCUAGACUGCC | 0 |

| Variant | self-cleavage |
| --- | --- |
| GGCAGAGCUCAACACAGCGUAGCAAAGGGGGUGUGGCUAGACUGCC | 0.03 |
| GGCAGAGUUCAACACAGCGUGGCAAAGUUCUUGUGGCUAGACUGCC | 1.1 |
| GGCCGAGCUCAACACAGCGUGGCAAAAUGUGUGUGGGUAGACUGCC | 0 |
| GGCAGAGCUCAACACAGCGUGGCAAAGUGGCUGUGGAUAAACGGCU | 0.11 |
| GACAGAGCUCAACACACCGUGGCAAAGUGGUAGUGGCUAGACUGCC | 0.16 |
| GGCAGAGCUGAACACAGCGUGGCGAAGUGGUUGUGGCUAGACUGCC | 0.16 |
| GGCAGAGCUCAACAUAGCGAGGCAAAGUGGCUGCGGCUCGACUCCC | 0.03 |
| GGCGCAGCUCAACACAGCCUGGCAAAGUGGCUGUGGCUAGCCUGCC | 0.2 |
| GGCAUAGCUCAACACAGCGGGGCAAAGUAGCUGUGGCUAUACUGCC | 0.13 |
| GACAGAGGUCAACACAGCGUGGCAAAGUGUGUGUGGCUAGACUGAC | 0.03 |
| GGCAGAGCUCAACACGGUGUGGCAAAUUGGCUGUGGGUAGACUGCC | 0.05 |
| GGCACAGCUCAACACAGCGUGCCAAAGUGCCUGUGGCUAGACUGCC | 0.06 |
| GGCAGAGCUCAACACAGAGUGGCAAAGUGGGUGUGGCUUGGCUGCC | 0.01 |
| GGUAGAACUCAAAACAGCGUUGCAAAGUGCCUGUCGCCAGACUGCC | 0.28 |
| GGCAGAGCUCAUCACAUCGUGGCAACGUGGCUGUGACUAGACUGCC | 0.02 |
| CGCAGAGCUCAACACAGCGUGGCUAAGUGCCUGUGGCUAGACUGCC | 0.02 |
| GGCAGAGCUCAACACAGCGUGGCUAAGUAGCUGUGUCUAGACUGCA | 0.01 |
| GGCAGAGCUCAACACAGCGUGUGAAAGUGGCUGUGGCUGGACUGCC | 0.1 |
